B1: OR4K15 (parent)
chain: GUUAACGGUCAUAGGCCAUGGAAACUAGGAGCACCAUUUCGCUGCCAGUGAAGAAAUGAACAAAGAAAAUCUGGGCCAGGCAGGCAUCAAAAGAAAUAGUCUUGCGCUCAACCAGAAAGUCUGUAAUCAUUUUAAGGGUA

The source gives no read counts; variants with many changes may rest on few reads.

The data set covers variants of B1. Nature of the data set: self-cleavage, relative activity (ratio to wild type); higher = more cleavage; in vitro, sequencing; the parent is a self-cleaving ribozyme.
With U2C A67U U87C, the self-cleavage came out at 1.58. As to U2C A27U U37C A54C A92U, the self-cleavage was found to be 1.27.

In the case of U2A A95C U120A, the self-cleavage was 1.75. The result for U2C U3A A114G reads 0.34. Consider U2C U38C A95U U102C U132C, for which the self-cleavage is 1.04. Turning to G1A A23U A92G, the self-cleavage is 1.67.

Consider U2C A51G A135G, for which the self-cleavage turned out to be 0.68.

For U2A U3C A54G, the self-cleavage is 0.34. As for U2C U87C G93U, the self-cleavage was 1.26. On to U2A C32U A64G U120C A126C, for which the self-cleavage is 0.65.

U2A A91G U103C: the self-cleavage was found to be 0.73. For the variant U3A U9C A18G A30G A36U U49C, the self-cleavage worked out at 0.72. Take U3A A62G A96G: the self-cleavage came out at 1.22. For the variant G1C A22G A111G, the self-cleavage came to 0. On to U2A U108C A118G, for which the self-cleavage was found to be 0.04. As for U2C U12C G73A A92G A111U, the self-cleavage was 0.04.

With U2C U37C A60G C88U U131C, the self-cleavage was 0.12. In the case of U2C A11G U19C A96G A110G U127C U132C, the self-cleavage turned out to be 0.05. Turning to U2C U9C A11G U26C, the self-cleavage was found to be 1.61.

As for U3A C6U A59G A66G A86G U139C, the self-cleavage turned out to be 0.69. The result for U2A A18U A63G reads 0.96; that for U2A A4U A89G A92G, 0.56; that for U2C U9C C40U U43A A64G A116U, 0.5. Regarding U2C A30G U38C U103C, the self-cleavage is 0.69.

Regarding U2C A96G U103G U130C, the self-cleavage came out at 0.02.

In the case of U2C A5G U70C G75A U103A U131C, the self-cleavage came to 0.03. The result for U2C A30G U43C A64G U70C reads 0.34; that for U2C A22G U37A U39C A52G A82G A114G, 0.37; that for U2C A30G A63G U108C A116G, 0.02. Regarding U2A A62G A82G, the self-cleavage came to 0.7. U2C A51G U57C: the self-cleavage is 1.26. Turning to U3A A18U A23G A129C, the self-cleavage came to 0.49.

Turning to U2A A52U A129G, the self-cleavage is 0.88. For the variant U2C A11G A60G, the self-cleavage was determined as 1.49.

Turning to U3A U9C U37C A114U, the self-cleavage is 0.06. The result for U3A G15C A55G reads 0.96; that for U2C A51G A54G A56C A82G A91G A129G, 0.03; that for U2A A11G A56G A96G U127C, 0.89.

On to U2G A22U A78C A110C U124C U131C, for which the self-cleavage is 0.04. As to G1A A33G U139C, the self-cleavage is 2.25. In the case of U2C U72C U122C, the self-cleavage came out at 0.16. Consider U2C U26C U49C U57C A78U, for which the self-cleavage came out at 0.16.

For the variant U2C A24G A27U A90G, the self-cleavage was 0.91. U2C U26C A36U A54U A66U U72A U108C U132C: the self-cleavage was 0.02. The result for U2C A18U A60G reads 0.66; that for U2C U49A A91C A94G A135G, 1.23; that for U3A A82G U87C, 0.34. Take U2C A5C A62G U72C: the self-cleavage amounted to 0.18. Consider U2C A47U A94G U132C, for which the self-cleavage was 0.19. As to U2C A27G A60G, the self-cleavage was determined as 1.95. Regarding U2C A51G A64G U70A, the self-cleavage was found to be 0.85.

For U2C A22G A116G, the self-cleavage was determined as 0.61. As to U2C A24G U39C U70A A89G, the self-cleavage stood at 1.03.

As to U2A A24G A95G, the self-cleavage came out at 1.23. The result for U2C U70C A89G A98C C128U G137U reads 0.38. Consider U3A A96G U103C, for which the self-cleavage was 1.13. Regarding U2C A68G A69U A86G A134U, the self-cleavage is 1.18.

Take U2C A33U U49C A52G G104A U120A: the self-cleavage was 0.02.

For U2A U38C G41A A82G A125G U127G, the self-cleavage was found to be 0.07. Regarding U2C A89G A94G U102C, the self-cleavage was found to be 1.46. For U2C A4G U37C A95G U122C, the self-cleavage stood at 1.32.

Regarding U2C U122C U130C A135G, the self-cleavage amounted to 1.76. In the case of U2A A66G A96G, the self-cleavage amounted to 0.88. Regarding U2C U9C A67G A78G, the self-cleavage was determined as 0.42. With U2A A47G A67G A95U G123A, the self-cleavage was 1.2. In the case of U2C U70C A94G, the self-cleavage stood at 0.25.

Take G1A A24G A27G C107U: the self-cleavage stood at 0.03.

As to U2C A64U A89U U102C, the self-cleavage came out at 0.74. Take U2C A4G A5G C25U G29A U70C U120A A135U: the self-cleavage came out at 0.63.

Regarding U2C A56G A69U A96G, the self-cleavage is 0.8.

As to U2A A27G U38C G41C A51C U131C, the self-cleavage came to 0.93.

On to U2C A51C A95G, for which the self-cleavage amounted to 0.91. The result for U2C A47G U49C A94G reads 1.04. The result for U2C A55G A96G U132C U139C reads 0.93; that for U2C G41A A51G G65U, 1.82; that for U2C U57C C105U, 0.01. Take U2C A11G U38C A111G A126G: the self-cleavage was determined as 0.05.

Consider U2C U43C A82G A96G, for which the self-cleavage amounted to 0.47. The same measure for U3A A55G A64G A68G: 1.34. For U2C U43A U57C A82G, the self-cleavage stood at 0.21.

With U2A U37C A118G, the self-cleavage was 0.47. Regarding U2C A60G A96U, the self-cleavage amounted to 0.71. The result for U2C A51G A92G reads 0.83; that for U2C A24C A68U A90G, 1.62.

Consider U2A A33G A55G A69G C77U A86U A92G A94U, for which the self-cleavage is 1.6. Turning to U2C A55G A68G, the self-cleavage is 1.64. On to U2C A22G A59G A89G A90G, for which the self-cleavage came to 1.12. Take U2A A51G C61U A78G: the self-cleavage amounted to 0.35. Turning to U2C A89G U130C, the self-cleavage turned out to be 0.68.

Consider U2C U49C A118G, for which the self-cleavage is 0.06. For the variant U3A A4G C34U G74A, the self-cleavage was 0.15. The same measure for U2A A52U A82G A95G U132C U139G: 1.37.

In the case of U2A A5G U9A U38C A55U C88U A96G, the self-cleavage came out at 1.11.

On to U2A A52C U72G C81U, for which the self-cleavage is 0.34. U2A G50A A60G U72A A114G: the self-cleavage was found to be 0.06. On to U2A U3C G20U G53U A54G A66G C85U A90G A117G, for which the self-cleavage was found to be 0.07. As to U2C U72C A82U U120C, the self-cleavage was found to be 0.03. Turning to G1A A5G U9C A111G, the self-cleavage was determined as 0.08. U2C U26C U39A A68G: the self-cleavage stood at 0.95.

Turning to G1U U19C A22G A62G A91G U103C, the self-cleavage amounted to 0.27.

As to U2C A23G U132A, the self-cleavage was found to be 0.41. For U2C A33G A98G, the self-cleavage amounted to 0.38.

Take U2C A22G U72A U108A: the self-cleavage is 0.01. Take U3A A51G A62G A82U A116G: the self-cleavage was 0. On to U2C A24C A82G U97C U122C A140G, for which the self-cleavage turned out to be 0.21. U2C U87C U120A: the self-cleavage stood at 0.28. In the case of U2A A52G U57A A69G U122A, the self-cleavage turned out to be 0.79. With U2A A86G U131C, the self-cleavage was found to be 1.06. U2C A4G U124C: the self-cleavage amounted to 0.31. On to U2C A23U A98U C109A, for which the self-cleavage was found to be 0.62. Regarding U2A A33G A135G, the self-cleavage came to 1.37. In the case of U2C A78G A114U, the self-cleavage is 0. Turning to G1A A22G A51G A52U U72C A117G, the self-cleavage was determined as 0.19. Regarding U2C A23G A51G, the self-cleavage amounted to 0.48. With U2C U39A U49C A78U A116G G136U, the self-cleavage amounted to 0.24.

For G1A A5G A69G A117G U124C, the self-cleavage is 0.48.

For the variant U2G A30U A33G A91G U108C U127C, the self-cleavage was determined as 0. Consider U2A A33G A54G, for which the self-cleavage was found to be 1.2. The result for U2C A36U A52G reads 1.2. U2C A23G U43A A96G: the self-cleavage stood at 1.45. Regarding U2C A11G C128A, the self-cleavage turned out to be 1.37.

Regarding U2C U26A A59G U120C, the self-cleavage worked out at 0.16. Turning to U2C A11C U49C A116U, the self-cleavage stood at 0.15.

Turning to U2A U38C C85U A111G, the self-cleavage worked out at 0.23.

In the case of U2C U9C U72A A82G, the self-cleavage was 0.13. Consider U2C G53U U72A U103A A117G, for which the self-cleavage came to 0.06.

With G1A U9C A111G U139C, the self-cleavage was found to be 0.07. Consider U2A A4G A30U A114U, for which the self-cleavage stood at 0.39.

U3C A4G U127A: the self-cleavage was 0.73. With U2C U39C A68G, the self-cleavage turned out to be 0.53. For the variant U2C U9C A68G A91G U139A, the self-cleavage was found to be 1.13. In the case of U2C G7U A47G A63C, the self-cleavage is 1.32. As for U2C A36U A135U, the self-cleavage came to 0.55. As for U2C C61A A63U A117G, the self-cleavage came out at 0.62.

Regarding U2C A51U C77A A78G, the self-cleavage was found to be 0.55. The same measure for U2C C32U A91G A117U U122A: 0.67; for U2C U72C A111G: 0.05; for U2C A36U U57A A68G G73A: 0.22. With U2A A62G A114G, the self-cleavage was found to be 0.39. With U2C A78U A114U G138A, the self-cleavage was found to be 0.05.

U2C A78G A118G: the self-cleavage stood at 0.08.

Consider U2A A23G A24G A82G, for which the self-cleavage was found to be 0.45.

On to U2A C34U U72C, for which the self-cleavage is 0.79.

Consider U2C U19A A67G A78G U139C, for which the self-cleavage came out at 0.32. As for U2A U19A A22G A33G G48A, the self-cleavage was found to be 0.96. The same measure for U2C A18G A52G A64G A96G: 0.77; for U2A A96G U102C: 1.51; for U2C A4G U72C: 0.32. With U2C U49C U102C, the self-cleavage was 1.43.

As for U2C A24C U102C, the self-cleavage turned out to be 2.8. As to U2C A24G G79A A95G U124G U127C, the self-cleavage was determined as 0.03. For U2A A52U A89G U122A, the self-cleavage amounted to 1.29. For the variant U3A U43C A63G, the self-cleavage came to 0.89. Consider U2C A33C A36G, for which the self-cleavage stood at 0.57.

Turning to G1C A52G A89G A117G U132A, the self-cleavage turned out to be 0.51. As for U2A U9C G41U A96G U120C, the self-cleavage came out at 0.23. As to G1U A56G U108C A114G, the self-cleavage was found to be 0.05. As to U2C A64G U72A A126G U139G, the self-cleavage worked out at 0.15. Turning to U2C A5U U9A, the self-cleavage worked out at 1.46. Take U2C A66U U120C U130C: the self-cleavage was determined as 0.25.

For U3A U43C U49C C121U, the self-cleavage worked out at 1.11. The same measure for U2A U9C U19C A52G: 1.25; for U2A U19A A63G: 2.1. On to U2G U12A A24G, for which the self-cleavage stood at 0.84. In the case of U3C A5U A36G, the self-cleavage is 1.69.

On to U2C U43A A135G, for which the self-cleavage worked out at 1.27.

Consider U2C A60G U124A, for which the self-cleavage was 0.31.

Values taken from the RNAGym collection of RNA variant scans (doi:10.7554/elife.90254).
